The list shows a part of the results. At the low end of the ranking the order means little.
What follows are sequences tested against SIX1-Q177R homeodomain (UniProt Q15475) (assay: universal protein binding microarray). Conditions: Universal all-10-mer PBM (8x60K, AMADID 030236), 300 nM GST-tagged protein, Alexa Fluor 488 anti-GST; buffer, salt, pH and temperature not stated; high values mean tight binding; most listed sequences are background and not binding sites; double strand, one strand shown.
With GCTTGGTA the binding signal was 0.0497 E-score. In the case of GGCAGACA, the binding signal is reported as 0.0792 E-score. ACAACACG gave a binding signal of 0.358 E-score. Sequence CTATAGCA has a binding signal of -0.176 E-score. Sequence AACGACTA has a binding signal of -0.209 E-score. Work on CAATGTTA yielded a binding signal of -0.288 E-score. Work on AACAAGAG yielded a binding signal of -0.174 E-score. For GTGAGCCA, the binding signal was -0.238 E-score. Work on ACGAGTAA yielded a binding signal of -0.00908 E-score. With CTAAAGTC the binding signal was -0.233 E-score. CGCAGACA gave a binding signal of 0.0814 E-score. CAATATCA gave a binding signal of -0.015 E-score. For GTTCTGGA, the binding signal was 0.0632 E-score. Work on AGGACAAA yielded a binding signal of -0.286 E-score. With GGCAATCA the binding signal was -0.0706 E-score. Sequence CGAATGTA has a binding signal of -0.043 E-score. Sequence TGGGAGAA has a binding signal of -0.0914 E-score. With CGGCGGAG the binding signal was 0.211 E-score. With GCGTTACA the binding signal was 0.201 E-score. With ATAGATAG the binding signal was -0.138 E-score. For CATAGTTA, the binding signal was -0.0356 E-score. Work on ACAGCTTC yielded a binding signal of -0.208 E-score. For ACTACATG, the binding signal was -0.112 E-score. With CTCAAGTC the binding signal was -0.219 E-score. With CGAGGGGC the binding signal was 0.0235 E-score. AGCACCAT showed a binding signal of 0.16 E-score. ATAGAAGA showed a binding signal of -0.272 E-score. ACTAGACT was tested, and the binding signal was -0.0342 E-score. With ACAGCAAA the binding signal was -0.0813 E-score. In the case of ACAGCCTG, the binding signal is reported as -0.0957 E-score. ATAGTTGG showed a binding signal of -0.183 E-score. Work on TGGAGGAA yielded a binding signal of -0.128 E-score. With CAGAAACC the binding signal was 0.00763 E-score. With AATCTGGA the binding signal was 0.0516 E-score. Sequence GTAACAAC has a binding signal of -0.0438 E-score. For CCACGTGC, the binding signal was -0.0381 E-score. Work on CCACAGGC yielded a binding signal of -0.0419 E-score. CTTGGAGA gave a binding signal of -0.0657 E-score. With ACCACTGC the binding signal was -0.00848 E-score. CGGTTTTA was tested, and the binding signal was 0.076 E-score. With GAGTAGCC the binding signal was -0.0759 E-score. AACTCCGT was tested, and the binding signal was 0.128 E-score. For CCCAGCGC, the binding signal was -0.0653 E-score. Work on ACTACATC yielded a binding signal of 0.0445 E-score. With AATAACGT the binding signal was -0.0629 E-score. With CCTGGCGA the binding signal was 0.0703 E-score. In the case of CGGTAAGC, the binding signal is reported as -0.197 E-score. AGCGTTTC was tested, and the binding signal was -0.07 E-score. GCAAAGCC showed a binding signal of -0.0794 E-score. TCTGAACA gave a binding signal of 0.117 E-score. GTACAGCA gave a binding signal of 0.00477 E-score. AACGAAAA was tested, and the binding signal was -0.0599 E-score. CGGATAGA gave a binding signal of -0.0725 E-score. In the case of GAAATGTC, the binding signal is reported as -0.197 E-score. AATTTTGA showed a binding signal of 0.0825 E-score. In the case of CCACGTAC, the binding signal is reported as 0.0213 E-score. In the case of GACGATGC, the binding signal is reported as -0.0395 E-score. In the case of ATAAATAC, the binding signal is reported as 0.0357 E-score. With CGAGATAA the binding signal was 0.0656 E-score. In the case of ATACTTTG, the binding signal is reported as -0.138 E-score. Work on AAGTGTAA yielded a binding signal of 0.4 E-score. In the case of CTATTGAG, the binding signal is reported as -0.0157 E-score. AGTGTCAG was tested, and the binding signal was 0.444 E-score. ACATTACA showed a binding signal of 0.114 E-score. In the case of AGTAAGTC, the binding signal is reported as 0.0331 E-score. In the case of AATTAACT, the binding signal is reported as -0.0745 E-score. For ACCCGGGG, the binding signal was 0.297 E-score. CCCGGGCA gave a binding signal of 0.13 E-score. For GATAGACA, the binding signal was 0.0823 E-score. GAATAGTA was tested, and the binding signal was -0.018 E-score. ACAATTCT gave a binding signal of -0.202 E-score. Work on AGATGTCG yielded a binding signal of -0.0403 E-score. ATTTCGTC gave a binding signal of -0.179 E-score. For CAGCGGAC, the binding signal was -0.131 E-score. For TCAACCGA, the binding signal was -0.13 E-score. ATGTCGTA was tested, and the binding signal was -0.0526 E-score. With ATGAGTGA the binding signal was -0.118 E-score. CGCGTATC showed a binding signal of 0.155 E-score. Sequence GGTTGCTA has a binding signal of -0.122 E-score. ACTACTGC was tested, and the binding signal was -0.19 E-score. CTGTGGCC showed a binding signal of -0.187 E-score. With CGGAGTAC the binding signal was 0.229 E-score. Work on CCGCTATA yielded a binding signal of -0.0308 E-score. CCACAACC gave a binding signal of -0.0338 E-score. ACCGTAGA was tested, and the binding signal was 0.0295 E-score. With GTGAGCAA the binding signal was -0.0741 E-score.

Reference: PMC10668032
